Some of the results follow. The full chains were built here from the parent and the listed change. Values near 0.05 are background.
B1: TEV protease; numbered along this chain (parent)
chain: MGESLFKGPRDYNPISSSICHLTNESDGHTTSLYGIGFGPFIITNKHLFRRNNGTLVVQSLHGVFKVKDTTTLQQHLVDGRDMIIIRMPKDFPPFPQKLKFREPQREERICLVTTNFQTKSMSSMVSDTSCTFPSGDGIFWKHWIQTKDGQCGSPLVSTRDGFIVGIHSASNFTNTNNYFTSVPKNFMELLTNQEAQQWVSGWRLNADSVLWGGHKVFMVKPEEPFQPVKEATQL

Variants of: B1
Test: raw area under fraction-flipped curve 0-4 h after induction (AUC4h, not background-subtracted), DNA-recorder readout of cleavage of the substrate (dimensionless); higher = more cleavage of the substrate by the protease variant
Conditions: temperature: 34 °C; time window: 0-4 h after rhamnose induction
Description: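 In vivo DNA recorder in E. coli TOP10(DE3) ΔrhaA at 34 °C. Each TEVp single-site mutant (parent TEVp 0) is paired with a single-site variant of the 7-mer TEVs (canonical ENLYFQ|S). The substrate sits between flexible linkers in a Bxb1-sfGFP-TEVs-SsrA fusion, so cleavage stabilises Bxb1 and speeds flipping of a recombination array, read by NGS. The value is the raw area under the fraction-flipped curve over 0-4 h after rhamnose induction (AUC4h), with ≥20 reads per time point. It is not background-subtracted; inactive controls average about 0.047.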
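Further: Bxb1 expression induced with 0.2% (w/v) L-rhamnose at OD600 near 0.5, cultures sampled hourly, flipped fraction per protease–substrate barcode pair counted by paired-end Illumina sequencing.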

Variant	area with substrate ENAYFQS	area with substrate ENCYFQS	area with substrate ENDYFQS	area with substrate ENEYFQS	area with substrate ENHYFQS	area with substrate ENKYFQS	area with substrate ENMYFQS	area with substrate ENPYFQS	area with substrate ENQYFQS	area with substrate ENRYFQS	area with substrate ENTYFQS	area with substrate ENVYFQS	area with substrate ENWYFQS	area with substrate ENGYFQS	area with substrate ENIYFQS	area with substrate ENSYFQS	area with substrate ENFYFQS	area with substrate ENNYFQS	area with substrate ENYYFQS
MGESLFKGPRDYNPISSSICHLTNESDGHTTSLYGIGFGPFIITNKHLFRRNNGTLVVQSLHGVFKVKDTTTLQQHLVDGRDMIIIRMPKDFPPFPQKLKFREPQREERICLVTTNFQTKSMSSMVSDTSCTFPSGDGIFWKHWIQTKDGQCGSPLVSTRDGFIVGIHSASNFTNTHNYFTSVPKNFMELLTNQEAQQWVSGWRLNADSVLWGGHKVFMVKPEEPFQPVKEATQL [N177H]	0.0747	0.0558	0.0564	0.0678	0.0536	0.0502	0.0739	0.0472	0.0599	0.0682	0.0642	0.0703	0.0674						
MGESLFKGPRDYNPISSSICHLTNESDGHTTSLYGIGFGPFIITNKHLFRRNNGTLVVQSLHGVFKVKDTTTLQQHLVDGRDMIIIRMPKDFPPFPQKLKFREPQREERICLVTTNFQTKSMSSMVSDTSCTFPSGDGIFWKHWIQTKDGQCGSPLVSTRDGFIVGIHSASNFTNTNNYCTSVPKNFMELLTNQEAQQWVSGWRLNADSVLWGGHKVFMVKPEEPFQPVKEATQL [F180C]	0.0517	0.0581	0.0545	0.0316	0.0596			0.0584	0.0617	0.0703	0.0619	0.0658		0.0526	0.0821	0.0362			
MGESLFKGPRDYNPISSSICHLTNESDGHTTSLYGIGFGPFIITNKHLFRRNNGTLVVQSLHGVFKVKDTTTLQQHLVDGRDMIIIRMPKDFPPFPQKLKFREPQREERICLVTTNFQTKSMSSMVSDTSCTFPSGDGIFWKHWIQTKDGQCGSPLVSTRDGFIVGIHSASNFTNTNNYVTSVPKNFMELLTNQEAQQWVSGWRLNADSVLWGGHKVFMVKPEEPFQPVKEATQL [F180V]	0.044		0.0526	0.0625	0.0457	0.049		0.0673	0.0524	0.0633	0.0714	0.0561	0.056	0.0419		0.0542	0.0604	0.0511	0.0488
MGESLFKGPRDYNPISSSICHLTNESDGHTTSLYGIGFGPFIITNKHLFRRNNGTLVVQSLHGVFKVKDTTTLQQHLVDGRDMIIIRMPKDFPPFPQKLKFREPQREERICLVTTNFQTKSMSSMVSDTSCTFPSGDGIFWKHWIQTKDGQCGSPLVSTRDGFIVGIHSASNFTNTNNYFLSVPKNFMELLTNQEAQQWVSGWRLNADSVLWGGHKVFMVKPEEPFQPVKEATQL [T181L]	0.0673	0.0473		0.055	0.0639			0.0497	0.0692		0.0709	0.0586	0.0562	0.0625		0.0525		0.0675	
MGESLFKGPRDYNPISSSICHLTNESDGHTTSLYGIGFGPFIITNKHLFRRNNGTLVVQSLHGVFKVKDTTTLQQHLVDGRDMIIIRMPKDFPPFPQKLKFREPQREERICLVTTNFQTKSMSSMVSDTSCTFPSGDGIFWKHWIQTKDGQCGSPLVSTRDGFIVGIHSASNFTNTNNYFMSVPKNFMELLTNQEAQQWVSGWRLNADSVLWGGHKVFMVKPEEPFQPVKEATQL [T181M]	0.0567	0.0597		0.0599	0.0544	0.0593	0.0586	0.0648	0.0657	0.0584	0.0625	0.0513				0.0603	0.0613	0.0734	
MGESLFKGPRDYNPISSSICHLTNESDGHTTSLYGIGFGPFIITNKHLFRRNNGTLVVQSLHGVFKVKDTTTLQQHLVDGRDMIIIRMPKDFPPFPQKLKFREPQREERICLVTTNFQTKSMSSMVSDTSCTFPSGDGIFWKHWIQTKDGQCGSPLVSTRDGFIVGIHSASNFTNTNNYFTSTPKNFMELLTNQEAQQWVSGWRLNADSVLWGGHKVFMVKPEEPFQPVKEATQL [V183T]	0.0599	0.0662	0.0566		0.0586	0.0682	0.0772	0.0574	0.0502	0.0546	0.0747	0.0719			0.0984	0.0623	0.0558	0.0564	0.05
MGESLFKGPRDYNPISSSICHLTNESDGHTTSLYGIGFGPFIITNKHLFRRNNGTLVVQSLHGVFKVKDTTTLQQHLVDGRDMIIIRMPKDFPPFPQKLKFREPQREERICLVTTNFQTKSMSSMVSDTSCTFPSGDGIFWKHWIQTKDGQCGSPLVSTRDGFIVGIHSASNFTNTNNYFTSVPTNFMELLTNQEAQQWVSGWRLNADSVLWGGHKVFMVKPEEPFQPVKEATQL [K185T]	0.0664	0.0522	0.0582	0.0623	0.0398	0.0568		0.0583	0.0565	0.0652	0.0631	0.0868	0.0647	0.0617	0.1	0.0531	0.0575	0.0676	0.0585
MGESLFKGPRDYNPISSSICHLTNESDGHTTSLYGIGFGPFIITNKHLFRRNNGTLVVQSLHGVFKVKDTTTLQQHLVDGRDMIIIRMPKDFPPFPQKLKFREPQREERICLVTTNFQTKSMSSMVSDTSCTFPSGDGIFWKHWIQTKDGQCGSPLVSTRDGFIVGIHSASNFTNTNNYFTSVPKLFMELLTNQEAQQWVSGWRLNADSVLWGGHKVFMVKPEEPFQPVKEATQL [N186L]	0.0183	0.0809	0.0554	0.0648		0.075		0.0648	0.0539		0.0605		0.0851	0.0492	0.0881	0.0613	0.0494	0.0691	0.0572
MGESLFKGPRDYNPISSSICHLTNESDGHTTSLYGIGFGPFIITNKHLFRRNNGTLVVQSLHGVFKVKDTTTLQQHLVDGRDMIIIRMPKDFPPFPQKLKFREPQREERICLVTTNFQTKSMSSMVSDTSCTFPSGDGIFWKHWIQTKDGQCGSPLVSTRDGFIVGIHSASNFTNTNNYFTSVPKMFMELLTNQEAQQWVSGWRLNADSVLWGGHKVFMVKPEEPFQPVKEATQL [N186M]	0.0548	0.0627	0.0582	0.0659		0.0616			0.0663	0.0653		0.0805	0.0045	0.0695		0.075	0.0581	0.0538	
